According to PubChem BioAssay AID504333 (National Center for Advancing Translational Sciences (NCATS), 2011):
In all, about 360,000 compounds went through this assay and about 16,000 (4.4%) were called active. Inconclusive results, whose numbers are uncertain, are shown with a selection of clear calls. Calls come from the whole dose curve; as a rule, active = well fitted inhibition curve with a large enough effect; inconclusive = small, poorly fitted or top-dose-only effect; inactive = no such curve, though single readings can be large or run the other way. Where the call is inconclusive, the potency comes from a doubtful curve fit.

molecular target: Bromodomain adjacent to zinc finger domain protein 2B (Homo sapiens) (UniProt Q9UIF8); experiment: qHTS Assay for Inhibitors of BAZ2B; settings: AlphaScreen BAZ2B-H3K14Ac peptide displacement; activity change, negative = inhibition: at 114 µM (top of the series) unless noted; note: nearly all actives have a fitted effect of over 60% in size
In short: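 Compounds, titrated to a top concentration of 110 uM, were incubated 30 min at room temperature with preformed BAZ2B/acetyl-K14 H3 peptide complex (50 nM each). Proximity signal was measured by AlphaScreen after 20 min with beads.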
% is set by controls: 0 for no effect and ±100 for the full control effect; potency is the fitted concentration of half-maximal effect; tags give direction and shape of the fitted curve.

UniProt Q9UIF8, sequence (Q9UIF8 whole entry, looked up, the tested form may be a part): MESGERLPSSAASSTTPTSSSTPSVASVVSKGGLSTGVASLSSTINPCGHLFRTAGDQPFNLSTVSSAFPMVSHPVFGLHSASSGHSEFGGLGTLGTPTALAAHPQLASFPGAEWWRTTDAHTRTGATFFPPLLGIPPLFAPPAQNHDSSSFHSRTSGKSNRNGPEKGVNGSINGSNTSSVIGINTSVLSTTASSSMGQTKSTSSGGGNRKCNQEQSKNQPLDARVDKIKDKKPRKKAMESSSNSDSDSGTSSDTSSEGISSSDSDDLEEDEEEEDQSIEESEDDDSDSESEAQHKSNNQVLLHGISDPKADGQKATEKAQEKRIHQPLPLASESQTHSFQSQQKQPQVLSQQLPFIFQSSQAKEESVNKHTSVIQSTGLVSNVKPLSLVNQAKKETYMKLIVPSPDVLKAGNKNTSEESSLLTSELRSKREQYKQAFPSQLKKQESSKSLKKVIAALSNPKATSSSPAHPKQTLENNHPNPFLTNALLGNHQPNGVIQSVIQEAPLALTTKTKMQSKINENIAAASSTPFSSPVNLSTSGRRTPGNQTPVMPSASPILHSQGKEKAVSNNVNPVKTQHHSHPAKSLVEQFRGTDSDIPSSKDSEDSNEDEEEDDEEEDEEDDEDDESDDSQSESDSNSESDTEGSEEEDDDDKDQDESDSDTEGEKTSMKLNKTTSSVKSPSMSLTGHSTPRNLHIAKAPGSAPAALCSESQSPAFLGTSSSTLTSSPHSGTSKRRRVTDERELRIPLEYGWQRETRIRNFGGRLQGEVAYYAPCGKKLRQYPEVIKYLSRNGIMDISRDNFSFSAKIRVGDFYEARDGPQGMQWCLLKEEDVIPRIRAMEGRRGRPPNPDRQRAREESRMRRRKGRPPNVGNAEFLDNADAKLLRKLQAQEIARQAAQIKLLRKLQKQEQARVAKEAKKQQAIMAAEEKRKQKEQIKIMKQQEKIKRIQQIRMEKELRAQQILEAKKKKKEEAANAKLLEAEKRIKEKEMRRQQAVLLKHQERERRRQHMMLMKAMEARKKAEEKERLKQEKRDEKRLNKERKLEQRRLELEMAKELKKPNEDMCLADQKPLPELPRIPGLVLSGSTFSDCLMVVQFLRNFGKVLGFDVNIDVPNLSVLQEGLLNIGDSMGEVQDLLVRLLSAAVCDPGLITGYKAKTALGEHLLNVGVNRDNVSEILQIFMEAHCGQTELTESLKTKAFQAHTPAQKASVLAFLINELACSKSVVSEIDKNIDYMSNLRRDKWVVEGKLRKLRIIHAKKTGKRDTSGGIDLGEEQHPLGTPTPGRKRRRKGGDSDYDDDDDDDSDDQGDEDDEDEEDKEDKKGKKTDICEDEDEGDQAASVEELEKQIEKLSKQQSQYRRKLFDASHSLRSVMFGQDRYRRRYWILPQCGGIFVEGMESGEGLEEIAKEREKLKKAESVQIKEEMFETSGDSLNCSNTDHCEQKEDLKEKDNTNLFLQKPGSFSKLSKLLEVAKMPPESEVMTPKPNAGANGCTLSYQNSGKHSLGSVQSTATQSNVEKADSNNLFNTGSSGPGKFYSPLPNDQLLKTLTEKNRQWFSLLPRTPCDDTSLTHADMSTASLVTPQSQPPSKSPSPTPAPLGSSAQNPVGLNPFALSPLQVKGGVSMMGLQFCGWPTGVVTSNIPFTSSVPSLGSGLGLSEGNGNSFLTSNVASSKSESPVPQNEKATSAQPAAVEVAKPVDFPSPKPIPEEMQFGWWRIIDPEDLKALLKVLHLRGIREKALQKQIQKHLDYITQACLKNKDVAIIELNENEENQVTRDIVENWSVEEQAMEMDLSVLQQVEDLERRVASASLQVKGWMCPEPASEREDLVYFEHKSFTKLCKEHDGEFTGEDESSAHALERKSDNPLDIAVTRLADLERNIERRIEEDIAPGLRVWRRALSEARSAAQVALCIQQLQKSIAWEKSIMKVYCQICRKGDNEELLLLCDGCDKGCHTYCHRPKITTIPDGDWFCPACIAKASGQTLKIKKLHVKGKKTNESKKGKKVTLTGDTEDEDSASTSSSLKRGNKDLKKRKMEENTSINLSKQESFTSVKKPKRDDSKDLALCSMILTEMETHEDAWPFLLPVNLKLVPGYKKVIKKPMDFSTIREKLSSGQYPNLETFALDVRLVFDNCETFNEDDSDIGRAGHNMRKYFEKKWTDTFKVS

SMILES	Potency	activity change, negative = inhibition
Cc1sc2c(c1C)c(=O)n(CCc1ccccc1)c(=O)n2Cc1cccc(F)c1	inconclusive: 17.8 µM [inhibitor, full curve]	
Fc1ccc(-c2nnc(CSc3nnc4ccccn34)o2)cc1		inactive: -2.13%
Cc1[nH]c(-c2ccc(F)cc2)cc1C(=O)N1CCN(c2ccc(Cl)cc2)CC1	inconclusive: 79.4 µM [inhibitor, single point]	
CN(CC(=O)Nc1ccc(F)c(F)c1)S(=O)(=O)c1cccc2cccnc12		inactive: -1.13%
Clc1nssc1=Nc1nncs1	active: 50.1 µM	
Cc1cc(N2C(=O)C3C4C=CC(C4)C3C2=O)ccc1NC(=O)c1cccs1 (stereo unspecified)	inconclusive: 89.1 µM [inhibitor, single point]	
COc1c(OC(C)=O)ccc(/C=C/c2ccc3ccccc3n2)c1[N+](=O)[O-]	inconclusive: 39.8 µM [inhibitor, full curve, poor fit]	
CC(C)(C)C(=O)/C=c1\s/c(=C\c2ccc(-c3ccc([N+](=O)[O-])cc3)o2)c(=O)n1CC(=O)NC(N)=O	inconclusive: 70.8 µM [inhibitor, partial curve]	
CN1CCN(C(=O)CCN2C(=O)/C(=C/c3ccc(F)cc3)SC2=S)CC1	inconclusive: 70.8 µM [inhibitor, single point]	
O=c1c2ccccc2[nH]c2ccc(O)cc12	active: 56.2 µM	
O=S(=O)(c1ccc2c(c1)CCCN2)N1CCCC1		inactive: 2.4%
COc1cc(CNCc2ccc(OC)c3ccccc23)cc(OC)c1OC	inconclusive: 89.1 µM [inhibitor, single point]	
COCc1cc(CN2CCCC2)c(O)c2ncccc12	active: 3.16 µM	
Cc1cccc(Cn2c(O)c(N=NC(=S)Nc3ccccc3F)c3ccccc32)c1	active: 8.91 µM	
O=[N+]([O-])c1ccc(S(=O)(=O)NCC(c2cccnc2)N2CCc3ccccc3C2)cc1 (stereo unspecified)	inconclusive: 79.4 µM [inhibitor, single point]	
COC(=O)c1ccc(COc2ccccc2/C=C/C(=O)c2ccc(OCC(=O)O)cc2)cc1	inconclusive: 63.1 µM [inhibitor, partial curve, poor fit]	
Cc1cccc(NS(=O)(=O)c2ccc3c(c2)oc(=O)n3C)c1C		inactive: -20.1%
N#CC/C(N)=N/Nc1nc2ccccc2nc1Cc1ccccc1		inactive: -16.3%
CC(C)Cn1c(=O)c2ccccc2n2c(CCC(=O)NCc3ccccc3Cl)nnc12		inactive: -2.52%
CC(=O)C1=C(O)C(=O)N(c2ccc(C)cc2)C1c1ccc([N+](=O)[O-])cc1 (stereo unspecified)	inconclusive: 79.4 µM [inhibitor, single point]	
CCOC(=O)N1CCN(S(=O)(=O)c2ccc(C(=O)Nc3sc4c(c3C(N)=O)CCN(CC)C4)cc2)CC1	inconclusive: 70.8 µM [inhibitor, single point]	
O=C(CN1CCCCC1)Nc1c2c(nc3ccccc13)N(c1ccccc1)CC2	active: 56.2 µM	
CCCC1=Nc2cc(C(=O)N3CCCC3)ccc2Sc2ccc(C)cc21	inconclusive: 31.6 µM [inhibitor, partial curve]	
COc1ccc(-c2cc3nc(C)c(CCC(=O)N4CCN(c5cccc(Cl)c5)CC4)c(C)n3n2)c(OC)c1	inconclusive: 35.5 µM [inhibitor, single point]	

SMILES	Potency	activity change, negative = inhibition
CCCCn1c(=O)[nH]c(=O)c2c1nc(-c1ccccn1)n2CC	inconclusive: 79.4 µM [inhibitor, single point]	
COCCCNCC(=O)Nc1sc(C)c(C)c1C(=O)OC	active: 50.1 µM	
O=C(NCCCN1CCOCC1)c1cc2c(s1)CSC2	inconclusive: 100 µM [inhibitor, single point]	
CN(C)C(=O)CSc1nnc(Cc2ccccc2)n1Cc1ccco1		inactive: -0.478%
Cc1cc(OC(=O)c2ccc(S(=O)(=O)N3CCOCC3)cc2)c([N+](=O)[O-])c(=O)[nH]1	inconclusive: 89.1 µM [inhibitor, single point]	
COc1ccc(S(=O)(=O)N2CCN(C(=O)c3ccc([N+](=O)[O-])o3)CC2)cc1	inconclusive: 79.4 µM [inhibitor, single point]	
CSc1ccccc1C(=O)Nc1cccc([N+](=O)[O-])c1	inconclusive: 79.4 µM [inhibitor, single point]	
Cn1cnnc1SC/C(O)=C(\C#N)c1nc2ccccc2[nH]1	active: 50.1 µM	
c1ccc(-c2nc(N3CCCCCC3)c3ccccc3n2)nc1	active: 50.1 µM	
COc1ccc(Cc2nc(-c3ccccn3)no2)cc1OC	inconclusive: 89.1 µM [inhibitor, single point]	
Cc1ccc(N/N=C/c2c(O)cc(C)oc2=O)cc1	inconclusive: 89.1 µM [inhibitor, single point]	
CC(C(=O)Nc1ccc2c(c1)OCO2)n1cnc2c1c(=O)n(C)c(=O)n2C (stereo unspecified)		inactive: -2.42%
CCOc1ccc(CC(=O)Nc2ccc3nc(N4CCCCC4)cc(C)c3c2)cc1OCC		inactive: -10%
COc1cc(C(=O)NCCCCc2ccccc2)cc(OC)c1OC		inactive: -2.36%
Cc1ccc(C2/C(=C(\O)c3cnn(-c4ccccc4)c3C)C(=O)C(=O)N2CCN(C)C)o1 (stereo unspecified)		inactive: -23.5%
COc1cc(CNc2ccc(N3CCN(C(C)=O)CC3)cc2)ccc1OCc1ccccc1	active: 39.8 µM	
CC1(C)CC(=O)C2=C(C1)N=c1s/c(=C/c3ccc(F)c(F)c3)c(=O)n1C2c1ccc(F)cc1 (stereo unspecified)		inactive: 1.22%
O=C(NCCc1ccccc1)C1CCN(S(=O)(=O)c2ccc(-c3nn[nH]n3)cc2)CC1	inconclusive: 89.1 µM [inhibitor, single point]	
CCOc1ccc2nc(SCC(=O)Nc3cc4c(cc3C(C)=O)OCO4)[nH]c2c1	inconclusive: 89.1 µM [inhibitor, single point]	
CCCn1c(=O)c(C(=O)NCCc2ccc(OC)c(OC)c2)c(O)c2ccccc21	inconclusive: 15.8 µM [inhibitor, single point]	
CC1=NN(c2ccc(C(=O)O)cc2)C(=O)/C1=C\c1ccc(OC(=O)c2cccs2)cc1	inconclusive: 56.2 µM [inhibitor, partial curve]	
Cc1ccc(-c2nnn(CCC(=O)NC3CCCC3)n2)cc1		inactive: 10.2%
Cc1ccc(Nc2c([N+](=O)[O-])cc(C(=O)N3CC(=O)Nc4ccccc43)cc2[N+](=O)[O-])c(C)c1	inconclusive: 8.91 µM [inhibitor, full curve]	
Cn1ccnc1Sc1nc(Nc2cccc(Cl)c2)nc(N2CCOCC2)n1		inconclusive: -42.5% [inhibitor]

SMILES	Potency	activity change, negative = inhibition
O=C(CSc1nnc(C2CC2)n1CC1CCCO1)Nc1cccc(Cl)c1 (stereo unspecified)		inactive: -1.45%
COC(=O)c1cc(OC)c(OC)c(OC)c1NC(=O)c1ccc(S(=O)(=O)N(C)C)cc1	inconclusive: 89.1 µM [inhibitor, single point]	
CN1C(=O)/C(=N\OC(=O)c2ccccc2Cl)c2ccccc21	inconclusive: 79.4 µM [inhibitor, partial curve]	
O=[N+]([O-])c1ccc2nc(-c3ccc(Cl)cc3)[nH]c2c1		inactive: -3.84%
CC(C)(C)c1ccc(Oc2ccc(N)cc2)cc1	active: 39.8 µM	
Cc1cccc2c(=O)c(Br)c(C)n(Cc3ccccc3)c12		inactive: -6.51%
CC(O)CNCCOc1cccc(Oc2ccccc2)c1 (stereo unspecified)	active: 50.1 µM	
Cc1ccccc1CSc1nnc(-c2ccccn2)n1C	active: 79.4 µM	
CC(C)c1ccc(C(=O)CSc2n[nH]c(-c3ccncc3)n2)cc1	inconclusive: 7.08 µM [inhibitor, single point]	
COC(=O)c1ccc(CN2CCCC(CCC(=O)NCc3ccc(C)o3)C2)cc1 (stereo unspecified)		inactive: -23.1%
CCCCC1=CC2=C(c3ccco3)C(=O)C(C)(OC(=O)c3ccc(OC)cc3)C(=O)C2=CN1CC1CC1 (stereo unspecified)	inconclusive: 25.1 µM [inhibitor, partial curve]	
CCN(CC)C(=O)c1c(Cl)nc(C)c([N+](=O)[O-])c1C		inactive: 8.13%
Cc1ccc(-n2nnc3c(sc4nc(C)c(C)cc43)c2=O)cc1Cl		inactive: -0.932%
CCOc1cc(CNCc2ccncc2)cc(Br)c1OCc1ccccc1F	inconclusive: 89.1 µM [inhibitor, single point]	
O=C(O)C1CCCCC1C(=O)Nc1nc(-c2ccc(Cl)s2)cs1 (stereo unspecified)	active: 56.2 µM	
CCC(C)(C)NC(=O)C(c1cccnc1)N(C(=O)c1csnn1)c1ccccc1 (stereo unspecified)	inconclusive: 89.1 µM [inhibitor, single point]	
COc1ccc2nc(N3C(=O)C(O)=C(C(=O)c4ccco4)C3c3ccccc3OC)sc2c1 (stereo unspecified)	inconclusive: 31.6 µM [inhibitor, partial curve]	
Cc1ccccc1Cn1c(O)c(N=NC(=S)Nc2ccccc2F)c2ccccc21	inconclusive: 3.98 µM [inhibitor, full curve]	
COc1ccccc1-n1c(=O)c(C#N)c(-c2ccc([N+](=O)[O-])cc2)c2cc(C(=O)c3cc(F)ccc3O)cnc21	inconclusive: 56.2 µM [inhibitor, partial curve, poor fit]	
Cc1cc(NS(=O)(=O)c2ccc(NC(=O)Cc3cccs3)cc2)no1		inactive: -2.19%
Cn1cc(C2CC(c3ccccc3)=NN2C(=O)c2ccccc2)c2ccccc21 (stereo unspecified)	inconclusive: 28.2 µM [inhibitor, full curve, poor fit]	
COc1ccc(CN(C(=O)c2ccco2)c2ccc(C)cc2)cc1OC	inconclusive: 89.1 µM [inhibitor, single point]	
CCCCn1c(N)c(-c2nc3ccccc3o2)c2c([N+](=O)[O-])nn(C)c(=O)c21	inconclusive: 89.1 µM [inhibitor, single point]	
